Test results reported in the supplement of paper PMC3334620.
In all, about 33,000 sequences were measured (“E-score (-0.5 to 0.5)”: median about -0.012, highest 2% from about 0.27 on). The list shows a part of the results.

The sequences below were run against T1, Vhr1 (UniProt P40522) (assay: PBM E-score (8-mer binding enrichment) (E-score (-0.5 to 0.5)); higher = stronger / more preferred TF binding; most listed sequences are background and not binding sites). Settings: protein concentration: 200 nM; construct: GST-full length.
T1 sequence: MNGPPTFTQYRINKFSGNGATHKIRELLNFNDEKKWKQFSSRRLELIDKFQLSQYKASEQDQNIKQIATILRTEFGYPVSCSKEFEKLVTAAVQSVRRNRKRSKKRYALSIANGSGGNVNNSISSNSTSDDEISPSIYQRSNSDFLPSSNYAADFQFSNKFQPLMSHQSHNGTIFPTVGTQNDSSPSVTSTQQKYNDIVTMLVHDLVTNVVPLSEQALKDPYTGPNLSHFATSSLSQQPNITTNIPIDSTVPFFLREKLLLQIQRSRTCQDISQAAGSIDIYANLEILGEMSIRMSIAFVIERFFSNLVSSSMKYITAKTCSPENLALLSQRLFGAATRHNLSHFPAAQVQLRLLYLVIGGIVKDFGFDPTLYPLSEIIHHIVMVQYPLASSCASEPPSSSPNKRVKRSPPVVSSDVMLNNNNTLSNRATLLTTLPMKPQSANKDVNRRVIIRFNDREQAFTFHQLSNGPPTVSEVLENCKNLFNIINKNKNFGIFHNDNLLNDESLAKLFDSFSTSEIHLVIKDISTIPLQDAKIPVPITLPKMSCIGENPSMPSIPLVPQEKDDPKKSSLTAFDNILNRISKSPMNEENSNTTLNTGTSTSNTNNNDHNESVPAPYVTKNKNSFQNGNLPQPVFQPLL
Method in brief: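 Yeast transcription factors carrying a GST tag, as full-length proteins or DNA-binding domains, were produced by PURExpress in vitro transcription/translation. About 100-200 nM protein was applied to universal all-10-mer Agilent arrays, double-stranded by primer extension on fresh or once-stripped slides. Bound protein was detected with fluorescent anti-GST, and scans were normalised with masliner. The Universal PBM Analysis Suite gave each ungapped eight-base word, pooled with its reverse complement, an E-score, a modified Wilcoxon-Mann-Whitney statistic.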

Sequence	PBM E-score
GGTGAGGA	0.00616
CTAAATAA	-0.192
GCAATCAA	-0.00069
CCGCGACA	0.0878
ATTACCCC	-0.0354
AGCTTCAC	-0.102
CTTATTCC	-0.129
CGGCGACC	-0.0736
TACCTGGA	0.117
AAAAGATC	-0.216
TGAAGTAA	-0.166
ACTTAACC	-0.155
GAGCTCCC	-0.0353
ATCAGGAG	0.0643
AGCGCCAC	-0.116
GTAGATCA	0.121
GAGATAAC	-0.14
GTAAGTAA	-0.116
CGAGTAGC	-0.0947
ATACAGAC	0.0587
ATAGAGAC	-0.0572
AAGTGGAC	-0.184
ATAGTGAG	0.0754
CACATGCA	0.196
CCCTGTCG	0.114

Sequence	PBM E-score
AGCCTAAA	-0.175
ATCAGGTA	0.193
GTAATCTA	0.116
CACCATGG	0.041
ACGCGCTC	0.163
ATCTACAA	-0.151
ACATGCGC	0.0977
AAGGGGAC	-0.308
TGCTATAA	-0.132
AATAAATT	-0.045
ACGGCTAC	0.0956
CCGGACCC	-0.0136
CAGTTAAG	0.00776
AAGGACGC	-0.0576
ATGAAAAA	-0.208
AGTTTCAG	-0.0517
ACCGGTCT	-0.208
AAGTGGGT	0.216
AAGCGCGT	-0.16
AAGAGTAG	0.00361
ACATTCGC	-0.0629
ACCAACGT	0.0483
CGTGAAGC	-0.219
TGAGGAAA	-0.294
GTAGGCTA	-0.132

Sequence	PBM E-score
ATACAACA	0.162
ACAAACGG	-0.0173
AGAGCTCC	-0.305
ACTCACTA	0.254
ATCGGCAG	0.0387
GACAACGA	-0.0359
ATCAATAC	0.0721
GAGATGCC	-0.17
CCCTTATC	-0.262
TAGGTCGA	-0.0177
CTGTGAAC	-0.24
CTTTAGCC	-0.174
GGCCCCTA	-0.184
CATCGTGA	0.0835
ATAGTGGA	-0.00616
CGTTCGTC	0.11
ATAATTAT	0.243
CCTCTACC	-0.0498
ACCTTTCT	-0.158
ATAAATGC	-0.0513
CTTGTGCC	-0.0908
GTGAATAA	0.16
ATGCTTTG	0.0636
AGGACCCT	-0.213
CGTAAAAA	-0.196

Sequence	PBM E-score
AGACACAA	0.0182
CTCACGGA	-0.00831
ATTGGGAC	0.0612
ACACTGCC	0.281
ACAGAGGG	-0.082
ATTGTATC	0.153
ATCAACCG	-0.0989
CCCCAGGC	-0.281
AATGGCCG	-0.11
ATATCGTG	0.104
AAGGAACA	-0.273
GAAGTGCC	-0.144
CGCACATC	0.0832
CTCTCGTC	-0.206
TATGCATA	-0.0323
CTCAGAGA	0.136
TGGTTAAA	0.0297
ACTTTCCA	-0.112
CATTTAGA	-0.0525
GGGATTAC	0.0189
GTCATCCA	0.18
ATTCGGCC	0.0234
AACTCAGC	-0.023
CGTAGGGA	-0.0954
CAATGAAA	0.0458

Sequence	PBM E-score
AGTAACCG	0.0709
CGTTGGAA	-0.0304
AACATTGC	0.00756
CCTCCCCA	0.28
AGCAAGGG	-0.0155
GAGCCGGA	0.0618
AAAGAACG	-0.0649
CTTTGTAA	-0.0464
AACGTACC	-0.0411
ACCATTCC	0.0303
ACGGACAG	-0.104
GATACCAC	0.185
ACGAGCTC	0.0556
TGTCTGAA	0.0836
ACGCGAGT	0.127
CATAGCAG	-0.0705
GGTCGACA	-0.0223
AGATATAG	0.0312
AGGTCTAG	-0.194
AAGCAAAC	-0.0625
AAGCTTCT	-0.302
AGTTTTCA	-0.175
AGGATGGG	0.206
ATAGTGTA	0.207
GGGATACC	-0.121

Sequence	PBM E-score
CACAAGAA	0.0603
ATCCAACA	-0.0262
CCTGTATC	0.124
GCCGAGTA	-0.0358
ATGTTGCG	0.0546
CATACTAG	0.238
AGATCAAC	0.00042
AGGTACCA	-0.12
ATCTAAGC	-0.318
ACGAGGCC	-0.168
AACGGGGG	-0.0988
ATGGTGTG	0.176
ACTTCCAC	-0.0245
GCTTTCAC	-0.269
AAGGGAAA	-0.224
CCGAAGCG	-0.132
AGAGTATC	-0.0198
GGCTTACA	0.0388
TACGTATA	0.158
AAGGGACA	-0.13
GGATGGCA	0.205
GGGGCGAA	0.00309
AACACAAC	0.154
AAAGCAAT	-0.0617
TGTCCTAA	-0.211

Sequence	PBM E-score
AAATACCA	0.205
GAAGCTAC	-0.121
CCCACACG	0.026
AGGTTTTG	-0.0684
CACCCCCG	0.113
ACCGGTGA	-0.0516
GCCCTCCA	-0.133
ATCTACCC	0.185
CCATTACG	-0.0059
ACAACTCT	-0.0194
ACAACTGA	0.162
ACTGTGCG	0.103
ATTGTGTG	0.0834
ACCTCCGA	-0.187
CTAGCTGA	0.0125
AGTTATCC	0.124
TGCGGGAA	0.00598
GCTCAACC	0.0526
GAAATTGA	-0.0293
AGTAAGAA	-0.0307
AAGAGAAA	-0.182
ACGTGTCC	-0.0792
